Measurements from the supplement of paper PMC12217912.
This is one part of the list. Sequences were assembled here from the parent chain. Inactive controls read about 0.05.

B1: TEV protease; numbered along this chain (parent)
chain: MGESLFKGPRDYNPISSSICHLTNESDGHTTSLYGIGFGPFIITNKHLFRRNNGTLVVQSLHGVFKVKDTTTLQQHLVDGRDMIIIRMPKDFPPFPQKLKFREPQREERICLVTTNFQTKSMSSMVSDTSCTFPSGDGIFWKHWIQTKDGQCGSPLVSTRDGFIVGIHSASNFTNTNNYFTSVPKNFMELLTNQEAQQWVSGWRLNADSVLWGGHKVFMVKPEEPFQPVKEATQL

Variants of: B1
Experiment: raw area under fraction-flipped curve 0-4 h after induction (AUC4h, not background-subtracted), DNA-recorder readout of cleavage of the substrate (dimensionless); higher = more cleavage of the substrate by the protease variant
Settings: temperature: 34 °C; time window: 0-4 h after rhamnose induction
Experimental: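 In vivo DNA recorder in E. coli TOP10(DE3) ΔrhaA at 34 °C. Each TEVp single-site mutant (parent TEVp 0) is paired with a single-site variant of the 7-mer TEVs (canonical ENLYFQ|S). The substrate sits between flexible linkers in a Bxb1-sfGFP-TEVs-SsrA fusion, so cleavage stabilises Bxb1 and speeds flipping of a recombination array, read by NGS. The value is the raw area under the fraction-flipped curve over 0-4 h after rhamnose induction (AUC4h), with ≥20 reads per time point. It is not background-subtracted; inactive controls average about 0.047.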
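Further: Bxb1 expression induced with 0.2% (w/v) L-rhamnose at OD600 near 0.5, cultures sampled hourly, flipped fraction per protease–substrate barcode pair counted by paired-end Illumina sequencing.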

| Variant | area with substrate CNLYFQS | area with substrate DNLYFQS | area with substrate GNLYFQS | area with substrate HNLYFQS | area with substrate INLYFQS | area with substrate KNLYFQS | area with substrate LNLYFQS | area with substrate MNLYFQS | area with substrate PNLYFQS | area with substrate QNLYFQS | area with substrate RNLYFQS | area with substrate TNLYFQS | area with substrate VNLYFQS | area with substrate WNLYFQS | area with substrate SNLYFQS | area with substrate NNLYFQS | area with substrate YNLYFQS | area with substrate FNLYFQS |
| --- | --- | --- | --- | --- | --- | --- | --- | --- | --- | --- | --- | --- | --- | --- | --- | --- | --- | --- |
| S130Y | 0.0682 | 0.0876 | 0.104 | 0.061 | 0.054 | 0.0819 | 0.0612 | 0.0832 | 0.0606 | 0.0509 | 0.0479 | 0.075 | 0.0421 | 0.0593 |  |  |  |  |
| R109W | 0.0653 | 0.102 |  | 0.0687 | 0.0601 | 0.0724 |  |  | 0.0663 |  |  |  | 0.0683 | 0.0619 | 0.069 |  |  |  |
| R109Q | 0.0793 | 0.0569 | 0.0741 | 0.0677 | 0.104 | 0.0668 | 0.0681 |  |  | 0.0678 | 0.0748 | 0.066 |  | 0.0602 |  |  |  |  |
| R109I | 0.0675 | 0.0676 |  | 0.051 |  |  |  | 0.0602 | 0.0692 |  |  | 0.0387 | 0.0738 | 0.0575 | 0.0527 | 0.0608 | 0.0622 |  |
| I110T | 0.0522 | 0.0872 | 0.0725 | 0.0538 | 0.0687 | 0.0632 | 0.066 | 0.0567 | 0.0638 | 0.0983 |  | 0.0556 | 0.0609 | 0.0518 | 0.076 |  | 0.0573 |  |
| I110D | 0.0526 | 0.0533 | 0.0522 | 0.0457 | 0.0575 | 0.0459 | 0.0551 |  | 0.0545 |  | 0.0589 | 0.0459 | 0.0587 | 0.0551 | 0.0636 |  | 0.0508 |  |
| I110G | 0.0565 | 0.0334 |  | 0.0574 |  |  | 0.0534 |  | 0.0723 | 0.0408 |  | 0.0568 |  | 0.0409 | 0.0387 | 0.054 | 0.0475 |  |
| V113G | 0.0763 | 0.0717 |  | 0.0559 | 0.0613 | 0.0456 | 0.0586 | 0.059 | 0.0607 |  |  |  | 0.0671 |  |  |  |  | 0.0589 |
| V126A | 0.0639 | 0.057 |  | 0.0627 | 0.0597 | 0.0537 | 0.0639 | 0.0618 | 0.0841 | 0.0709 |  | 0.0529 | 0.0731 | 0.0545 | 0.0757 | 0.0541 | 0.0636 | 0.0654 |
| V126Y | 0.0751 | 0.0957 | 0.0719 | 0.0687 | 0.0589 | 0.0549 |  |  | 0.07 |  |  | 0.0499 |  | 0.064 | 0.0771 | 0.0713 |  |  |
| F133K | 0.0783 | 0.0881 | 0.0864 | 0.0619 |  |  | 0.0675 | 0.0587 |  |  |  |  |  |  |  | 0.0687 | 0.0436 |  |
| S127E | 0.0656 | 0.0839 | 0.0657 | 0.0625 | 0.0608 | 0.0664 | 0.0742 |  | 0.0656 | 0.067 |  | 0.0669 | 0.0641 | 0.0636 |  |  | 0.0571 |  |
| S127K | 0.0622 | 0.099 |  |  |  |  | 0.0554 |  |  |  |  | 0.0697 |  | 0.0484 | 0.0738 |  | 0.0748 | 0.0674 |
| S127G | 0.0727 | 0.0808 |  | 0.0679 | 0.062 | 0.0749 |  |  | 0.0653 | 0.0712 | 0.0608 | 0.0683 |  |  |  | 0.077 | 0.0641 | 0.0651 |
| N116S | 0.0639 | 0.0914 |  | 0.0709 | 0.0578 |  | 0.076 |  |  |  |  | 0.0776 |  | 0.0725 |  |  | 0.0655 |  |
| S121H | 0.0696 | 0.0847 | 0.0482 | 0.069 | 0.0647 | 0.0739 | 0.0604 | 0.0784 | 0.0668 |  |  | 0.0524 | 0.0564 | 0.0453 | 0.0668 |  |  |  |
| S121M | 0.0519 | 0.0579 | 0.0664 | 0.0617 |  |  |  | 0.0732 |  |  |  | 0.0682 |  | 0.0573 | 0.0517 | 0.0295 | 0.0545 | 0.0539 |
| S121W | 0.0449 | 0.0831 | 0.0944 | 0.0634 | 0.0517 | 0.0795 | 0.078 | 0.0476 | 0.0567 |  |  | 0.0766 | 0.066 | 0.0605 | 0.0622 |  | 0.0654 | 0.0641 |
| C111S | 0.063 | 0.103 | 0.0702 | 0.0668 | 0.0605 | 0.0656 | 0.0633 | 0.0917 | 0.0686 | 0.0678 | 0.0718 | 0.0707 | 0.0635 | 0.0554 | 0.0686 |  | 0.0698 | 0.0717 |
| C111M | 0.064 | 0.056 |  | 0.0762 | 0.0366 | 0.07 | 0.0861 |  | 0.0736 |  |  | 0.0629 | 0.0639 | 0.0633 | 0.0727 | 0.0705 | 0.0622 | 0.0408 |
| S124P | 0.0664 | 0.074 |  | 0.0614 | 0.0624 |  | 0.072 | 0.0648 | 0.0492 |  |  | 0.0623 |  | 0.0495 |  | 0.0785 | 0.066 | 0.0652 |
| S124R | 0.063 | 0.0991 | 0.0667 | 0.0624 | 0.0519 | 0.0984 | 0.0648 | 0.0753 | 0.0686 |  |  | 0.0735 |  | 0.0582 | 0.0446 | 0.0744 | 0.0705 | 0.0791 |
| S124V | 0.0704 | 0.0935 | 0.0596 | 0.054 |  |  | 0.0666 | 0.0591 | 0.0696 |  |  | 0.0655 | 0.0591 | 0.0494 | 0.0656 | 0.0687 | 0.0535 | 0.0605 |
| S123I | 0.0619 | 0.0837 | 0.0712 | 0.0716 | 0.0658 | 0.0554 |  |  |  |  |  | 0.0601 |  | 0.0675 |  | 0.0726 | 0.0586 | 0.0701 |
| S123D | 0.0598 | 0.0668 | 0.0729 | 0.0562 | 0.074 | 0.0635 | 0.0481 | 0.0699 | 0.0788 |  | 0.0612 | 0.0583 | 0.072 | 0.0553 | 0.0681 | 0.0862 | 0.0559 | 0.0577 |
| T132A | 0.0629 | 0.06 |  | 0.0557 | 0.0691 | 0.0786 | 0.0608 | 0.0657 |  | 0.0524 |  | 0.0596 | 0.0476 | 0.0578 | 0.0531 | 0.0631 | 0.0698 |  |
| T132I | 0.0682 | 0.0851 | 0.065 | 0.0742 | 0.0802 | 0.0597 | 0.046 | 0.059 | 0.066 |  |  | 0.0737 |  |  |  |  | 0.0622 | 0.055 |
| T114Y | 0.0686 | 0.0646 |  | 0.0328 |  | 0.0694 | 0.0778 |  | 0.102 |  | 0.0526 | 0.0752 |  | 0.0718 |  |  | 0.075 | 0.0684 |
